In paper PMC12235650, “Macrocyclization of backbone N-methylated peptides by a prolyl oligopeptidase with a distinctive substrate recognition mechanism” (Chemical Science, 2025):
Residues, ends and D or L forms follow the SMILES beside them. *: point of attachment. pNA = O=[N+]([O-])c1ccc(N*)cc1; Cbz = O=C(OCc1ccccc1)*

Tests used:
OphP [1] = biological target: T1, OphP (Omphalotus olearius, UniProt P9WEN5); assay: peptidase activity inhibition assay; format: biochemical; conditions: covalent; active-site inhibitor
T1 construct: N-terminal His8SUMO* fusion made in Pichia pastoris; residues 1-738 described in the structure; monomer

OphP [2] = biological target: T1, OphP; assay: X-ray crystallography, crystal soaking, […] A; format: binding; conditions: covalent; bound to active site Ser580
OphP [3] = biological target: T1, OphP; assay: chromogenic peptidase assay (4-nitroaniline release); format: biochemical; conditions: activity optimum 30 C, pH 6.0

Q: For `O=C[C@@H]1CCCN1C(=O)[C@@H]1CCCN1C(=O)OCc1ccccc1` [ZPP, Z-Pro-prolinal] (Cbz-Pro-Pro-aldehyde), which “peptidase activity inhibition assay” value (OphP [1]) is on record?
A: reduced by Z-Pro-prolinal (ZPP), a common covalent inhibitor for POPs

Q: And the “X-ray crystallography, crystal soaking, 2.0 A” value (OphP [2])?
A: OphP crystals soaked with covalent inhibitor ZPP overnight showed density at the active site

Q: With `O=C(NCC(=O)N1CCC[C@H]1C(=O)Nc1ccc([N+](=O)[O-])cc1)OCc1ccccc1` [Z-Gly-Pro-4-pNA, benzyloxycarbonyl-Gly-Pro-p-nitroanilide] (Cbz-Gly-Pro-pNA) as the compound, how does the “chromogenic peptidase assay (4-nitroaniline release)” value (OphP [3]) read?
A: confirmed as catalytically active using a standard chromogenic substrate for POPs
